According to patent publication US8273715B2, “Methods of treating fragile X syndrome” (Seaside Therapeutics, Inc., priority 2006, dated 2012):

Experiments:
[1] = tested on: person one with autism spectrum disorder; assay: Example 2: baclofen in person one with autism spectrum disorder; assay type: in vivo, human
Excerpt: . […] Dramatic improvements in mood and affect such as “looks comfortable, calm and happy” were also noted. Increased alertness, interest and motivation to work on cognitive/educational activities with school instructors were also noted. […]. Daily scores were averaged over the five weeks after initiating baclofen therapy and compared to the average scores for the five weeks immediately preceding initiation of baclofen therapy. […].

[2] = tested on: subjects with autism spectrum disorder; assay: Example 4: racemic baclofen in 21 subjects with autism spectrum disorder, clinician rating; assay type: in vivo, human; conditions: of 21 subjects
Excerpt: The subjects had serious behavioral problems that were not controlled with a variety of medications including antiepileptics (N=14), antipsychotics (N=8) and antidepressants (N=6).

[3] = tested on: subjects with fragile X syndrome; assay: Example 5: racemic baclofen in five male subjects with fragile X syndrome, clinician rating; assay type: in vivo, human; conditions: of 5 male subjects; for number of patients that demonstrated an improvement in behavior: 2.5 mg BID titrated to max about 20 mg TID
Description: These subjects had serious behavioral problems that were incompletely controlled with typical psychoactive medications. […] Doses were titrated from about 2.5 mg BID to a maximum of about 20 mg TID, with a maximum duration of about 4 months. […] Subjects were considered “Improved” if the clinician rating was either “much better” or “better”; considered “Not Improved” if the rating was “slightly worse”, “no change” or “slightly better”; and considered “Worsened” if rated “worse” or “much worse”. […] Other areas of improvement included increased class participation and decreased hyperactivity.

[4] = tested on: person three with autism spectrum disorder; assay: Example 3: baclofen in person three with autism spectrum disorder; assay type: in vivo, human; conditions: 5 mg bid
Excerpt: Parents also noted an improvement in sleep patterns, mood and affect. Increased alertness, interest and motivation to work on cognitive/educational activities were noted by school personnel. […] Daily scores were averaged over the five weeks after initiating baclofen therapy and compared to the average scores for the five weeks immediately preceding initiation of baclofen therapy.

[5] = tested on: person two with autism spectrum disorder

| Structure (SMILES) | episodes of scratching, hitting and kicking others ([1]; 5 mg bid, average of five weeks after initiation (mean±SE), before 17+2) | episodes of hand biting or hitting of the head ([1]; 5 mg bid, average of five weeks after initiation, before 15+2) | time benefits have been maintained ([1]; stable dosing at 5 mg bid) [weeks] | number of subjects that worsened [2] | number of subjects who stopped with adverse side effects considered related to initiation of baclofen ([2]; drowsiness in one, hyperactivity in the other) | number of subjects without obvious improvement [3] | number of patients that demonstrated an improvement in behavior ([3]; listed as Racemic baclofen) | number of patients that demonstrated an improvement in behavior ([3]; listed as racemic baclofen) | episodes of startle tremor ([4]; average of five weeks after initiation (mean±SE), before 66+24) | incidence of spontaneous attempts to communicate ([4]; average of five weeks after initiation, before 11+1) | time until abdominal pain appeared resolved and GI motility became functional ([5]; 5 mg tid) [h] | cognitive and behavioral domains ([5]; 5 mg tid, over the next several days and weeks) | time until beneficial effects began to wane ([5]; about 5 mg tid) | duration over which efficacy has been observed ([5]; about 10 mg bid, single dose omitted when effects wane) | effect of increasing the dose after effects waned ([5]; about 10 mg tid) | side effects ([5]; single dose of about 15 mg) | effect of 3 day trial prior to baclofen treatment ([5]; 3 days in the hospital) |
| --- | --- | --- | --- | --- | --- | --- | --- | --- | --- | --- | --- | --- | --- | --- | --- | --- | --- |
| NCC(CC(=O)O)c1ccc(Cl)cc1 (racemic) [baclofen, β-(Aminomethyl)-4-chlorobenzenepropanoic acid] | 6+1 episodes a day | 6+1 episodes a day | 5 | 2 | 2 | Two subjects | Two of the 5 | Two of five | 16+5 episodes a day | 21+2 episodes a day | ≤ 24 | improvements were noted | about 3 weeks | over 11 weeks | did not produce the beneficial effects | sedation | – |
| CN(C)CCC=C1c2ccccc2CCc2ccccc21 [amitryptiline] | – | – | – | – | – | – | – | – | – | – | – | – | – | – | – | – | no effect |
